In a compilation of properties of binary mixtures (doi:10.1016/j.molliq.2022.120410):
Some of these densities may be calculated back from excess volumes.

Experiment: xn = mol fraction of the nth substance listed
Conditions: 101.3 kPa

OCCOCCO + CC[NH3+].O=[N+]([O-])[O-]
x2 = 0
Conditions | mass density [kg/m3]
298.1 K | 1112.6
308.1 K | 1105.5

CC[NH3+].O=[N+]([O-])[O-] + OCCOCCO
mass density [kg/m3]
Conditions | 298.1 K | 308.1 K | 318.1 K
x1 = 0.0488 | 1119.8 | 1112.7 | 1105.6
x1 = 0.0983 | 1126.3 | 1119.3 | 1112.4
x1 = 0.197 | 1138 | 1131.4 | 1124.7
x1 = 0.2961 | 1148.1 | 1141.7 | 1135.2
x1 = 0.3955 | 1157.2 | 1150.9 | 1144.6
x1 = 0.4954 | 1166.3 | 1160 | 1153.8
x1 = 0.5955 | 1174.9 | 1168.7 | 1162.5
x1 = 0.6961 | 1183.7 | 1177.5 | 1171.3
x1 = 0.797 | 1192.6 | – | 1180.2
x1 = 0.8983 | 1200.8 | 1194.6 | 1188.5
x1 = 1 | – | 1202.9 | 1196.8
